In the supplement of paper PMC3334620:
Whole data set: some 33,000 sequences, median “E-score (-0.5 to 0.5)” near -0.035, cut for the highest 2% near 0.34. The list shows a part of the results.

These sequences were tested against T1, Mot3 (UniProt P54785) (assay: PBM E-score (8-mer binding enrichment) (E-score (-0.5 to 0.5)); higher = stronger / more preferred TF binding; most listed sequences are background and not binding sites). Settings: protein concentration: 200 nM; construct: GST-full length.
T1 sequence: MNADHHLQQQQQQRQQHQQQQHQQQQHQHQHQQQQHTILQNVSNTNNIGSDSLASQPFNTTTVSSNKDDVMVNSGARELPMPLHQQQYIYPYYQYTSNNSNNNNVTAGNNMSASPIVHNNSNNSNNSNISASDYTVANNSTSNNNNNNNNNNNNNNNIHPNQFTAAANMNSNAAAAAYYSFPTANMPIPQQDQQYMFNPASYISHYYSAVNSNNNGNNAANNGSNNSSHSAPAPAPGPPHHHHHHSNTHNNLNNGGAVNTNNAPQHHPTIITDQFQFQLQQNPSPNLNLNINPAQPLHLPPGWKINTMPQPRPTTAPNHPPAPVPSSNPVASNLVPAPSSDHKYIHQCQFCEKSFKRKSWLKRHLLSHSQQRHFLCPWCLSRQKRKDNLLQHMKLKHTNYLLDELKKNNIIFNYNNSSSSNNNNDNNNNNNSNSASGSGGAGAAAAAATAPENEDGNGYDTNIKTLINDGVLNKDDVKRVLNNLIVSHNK
How it was run: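 Bound GST-tagged yeast transcription factors, applied at about 100-200 nM to double-stranded universal all-10-mer Agilent arrays, were detected with fluorescent anti-GST. Scans were normalised with masliner. A modified Wilcoxon-Mann-Whitney statistic, the E-score, was assigned to each ungapped eight-base word pooled with its reverse complement by the Universal PBM Analysis Suite.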

Sequence	PBM E-score
ACTGGCAT	-0.188
CAATTATG	0.135
CGGGGCCA	-0.416
CACACCTA	0.0255
ACGGAGAT	-0.0691
AAATTAAC	0.128
AGCCGATG	-0.228
ATTAGACA	0.027
GGGACCAC	-0.274
AGGTACTG	0.258
TTTCGAAA	0.00655
ACCGAATC	-0.00094
ACAAGCGC	5e-05
CTGCCACC	-0.184
ACGCATAG	0.147
CTCGGAAC	-0.185
ATCGTGTA	0.39
CTGTTCTA	0.0629
CATGATAA	0.277
CGGCTCAG	-0.217
TGTAGACA	0.278
CAGTCGCA	-0.118
ACGCATCT	0.106
GCATGTCC	0.0392
ACGAACGA	0.0589

Sequence	PBM E-score
AGAATATC	-0.096
AGGAGAAT	-0.161
AGTTGATC	-0.00973
ACTGCCAA	-0.0121
AACCCCTG	-0.163
TTCGCAAA	0.0552
GCAACGAA	0.177
ATCTAAAC	-0.0106
AAGGTCTC	-0.0648
AACTGAGC	-0.348
CCGATAGG	-0.0164
CGTCATGC	-0.095
ATCAATGG	-0.263
AGACGTGA	0.0416
AGACATGG	0.139
GTTTGTGA	0.0357
CATGCGCC	0.0452
CCCAGCGC	-0.0444
AATTGCAA	-0.0353
AATTGATG	0.182
ATGACGTC	-0.114
AGTTCATG	-0.00682
CAATCAGC	-0.109
AACAGGTT	0.0771
GAGAGAGC	-0.267

Sequence	PBM E-score
CGGCCGAA	-0.249
CTCAAGCC	-0.236
CGGTGGAG	-0.26
GGGATCAA	-0.0523
GACGGACA	-0.146
AGCCTTAT	-0.0161
CACAACGC	0.171
CCTCCCAG	-0.03
ATTATTTC	0.183
AGGCCGTG	0.0145
AAGTAATT	0.201
GGTAGCAC	-0.16
GTTTCGGA	0.0513
AGCATACA	0.207
GAATGCGA	-0.14
CTATCCAG	-0.157
AGTAGCTA	0.0219
GGTGGGAA	-0.139
CCTCCGCC	-0.179
CACGCGCA	0.0291
AATAGCTG	-0.0893
ATTTCAAA	0.0112
AATTTCCG	-0.0949
ATATCAGG	0.00966
ACCCTCAA	-0.154

Sequence	PBM E-score
GGGACCCA	-0.233
CGAGATGC	-0.114
ATCCTTGA	-0.0317
TGAAACCA	0.0238
ATTGTCTC	-0.105
CGCCATGA	-0.215
TACTGTAA	0.194
ACGACTGA	-0.139
CAACTCGA	0.065
AGTAGGCG	0.0255
CTATAGTA	0.0403
GCCCAGAC	-0.216
CCTGAAAA	0.0999
ATAGTGAT	-0.129
CCGGTCGC	-0.104
AAAAAGTG	0.139
ACAAGCAC	0.189
GTGTACGA	0.0975
GCGCCCTA	-0.0762
AGATTTGA	-0.0563
AGTCTTGC	-0.00814
ATCTTTCA	0.0392
GGGGTTCA	-0.262
AGTCCAAC	-0.0517
AATAAGTA	0.124

Sequence	PBM E-score
AATTGAAG	0.0415
AGAAGCGC	-0.0935
ACTAGGAG	-0.189
GACGCAGC	0.0247
AATAGGAG	0.0114
TAGAAAGA	-0.132
CGGTCCGA	-0.278
AAGTGTAG	0.158
ACTCTTAC	0.12
CATTTATA	0.0679
AGAACAAC	0.0492
CGACACTA	-0.0502
GCCGTGGA	-0.169
AGGGGACG	-0.236
CATACCCA	0.107
AAGCCCTT	-0.182
CTGGTTCA	-0.121
ACGCAAGG	0.153
CTACCTCA	-0.107
AGCGCTAG	-0.115
CATGTCCG	-0.0566
CCCGGGCA	-0.252
CTCGAATC	-0.109
AGACCGGG	-0.307
CCGGACGA	-0.127

Sequence	PBM E-score
CCTTCAGA	-0.0591
CACACGCG	0.226
ACCGACTG	-0.299
AACAAAAC	0.171
ATAACAGA	0.241
TACCGGCA	-0.145
CAGTAGGA	-0.095
AAATCCTT	-0.0785
AGGGTTGA	0.0573
CACCGGTC	-0.244
GAGTCCCA	-0.261
ATTACGAC	0.143
AGTTAGGG	-0.0425
CCCGTTCC	0.0893
AAACTTAA	0.209
ATGTTAGG	0.181
AGAAGTCT	-0.108
GAGATTCC	-0.339
AATCTTCC	-0.232
ACACAAGA	0.237
CCATTAGA	-0.398
ATCTAATG	0.0747
CACAAACA	0.181
CTACATTA	0.196
AGAACACC	0.0423

Sequence	PBM E-score
AATTCACA	0.195
CAACGTTA	0.223
GACGGGGC	-0.274
AATAAGCG	-0.116
CCCGTAGC	-0.21
CTACACAC	0.333
CGTGCAGC	-0.082
ACACAACC	0.255
GTCAGAAA	0.0298
CATGATTC	0.0646
AATAAAAC	0.0769
GGCAAGTA	0.328
ATAATGGA	-0.0891
ACATGCTG	0.264
ATACTATG	-0.158
ACCCATTC	-0.0384
GGGGGCCA	-0.252
ATTACTAA	0.151
TTACTAAA	0.136
CCTAGGCG	-0.157
CGAAGTGC	0.0724
GTATTCCA	0.0481
